Data published in PubChem BioAssay AID588795 (National Center for Advancing Translational Sciences (NCATS), 2011).
In all, about 390,000 compounds went through this assay and about 1,400 (0.36%) were called active. The inconclusive results got no clear call from the source; some entries with a clear call stand among them for comparison. Calls come from the whole dose curve; as a rule, active = well fitted inhibition curve with a large enough effect; inconclusive = small, poorly fitted or top-dose-only effect; inactive = no such curve, though single readings can be large or run the other way. Where the call is inconclusive, the potency comes from a doubtful curve fit.

molecular target: Flap endonuclease 1 (Homo sapiens) (UniProt P39748); assay: qHTS Assay for the Inhibitors of Human Flap endonuclease 1 (FEN1).; note: nearly all actives have a fitted effect of over 65% in size; conditions: Recombinant FEN1 flap cleavage, fluorescence, 15 min; series mostly up to 114 µM
Chain of UniProt P39748 (P39748 whole entry, looked up): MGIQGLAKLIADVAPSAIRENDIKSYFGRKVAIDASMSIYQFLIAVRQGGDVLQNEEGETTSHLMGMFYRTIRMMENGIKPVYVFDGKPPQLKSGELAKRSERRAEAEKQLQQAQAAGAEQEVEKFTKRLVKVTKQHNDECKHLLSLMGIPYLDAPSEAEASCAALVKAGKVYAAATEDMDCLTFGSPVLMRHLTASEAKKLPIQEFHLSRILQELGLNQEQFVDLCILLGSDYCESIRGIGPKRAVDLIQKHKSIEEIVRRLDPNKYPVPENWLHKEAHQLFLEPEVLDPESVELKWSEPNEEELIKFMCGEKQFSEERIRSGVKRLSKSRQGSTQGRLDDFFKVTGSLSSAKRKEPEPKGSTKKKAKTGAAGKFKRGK
In short: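 Potency values derive from four-parameter Hill fits of normalized qHTS data. The reaction used 10 nM FEN1 preincubated 15 min at room temperature with compound, then 50 nM DNA substrate, read at 0 and 15 min.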
Potency is the fitted concentration of half-maximal effect; tags give direction and shape of the fitted curve.

| Compound | Potency |
| --- | --- |
| O=C1c2ccccc2C(=O)c2c([N+](=O)[O-])ccc(O)c21 | inconclusive: 79.4 µM [inhibitor, single point] |
| Nc1cccc2cc(S(=O)(=O)O)ccc12 | active: 8.91 µM |
| Nn1c(SCC(=O)Nc2cccc(Br)c2)nnc1C1CC1 | inactive |
| COc1cccc2sc3ccc(C#CC4(N)CCCCC4)cc3c(=O)c12 | inconclusive: 44.7 µM [inhibitor, full curve] |
| CCCCn1c2ccccc2c2nnc(SCC(=O)Nc3ccc(NC(C)=O)cc3)nc21 | inconclusive: 56.2 µM [inhibitor, partial curve, poor fit] |
| Cc1ccc(C(C2=C(O)CC(C)(C)CC2=O)C2C(=O)CC(C)(C)CC2=O)s1 (configuration not stated) | inactive |
| O=S(=O)(Nc1cccc2cccnc12)c1ccccc1Br | inconclusive: 25.1 µM [inhibitor, partial curve, poor fit] |
| Cc1ccc(C)c(/C(O)=C2/C(=O)C(=O)N(CCN3CCOCC3)C2c2ccco2)c1 (configuration not stated) | inactive |
| COc1ccc(C(=O)COC(=O)/C=C/c2ccc(S(=O)(=O)Nc3cccc(S(N)(=O)=O)c3)cc2)cc1 | inactive |
| O=C(Nc1nnc(SCc2ccc(F)cc2)s1)c1ccc2ncsc2c1 | inconclusive: 79.4 µM [inhibitor, partial curve, poor fit] |
| COc1ccc(C(=O)Nc2ccc(OCC(F)(F)C(F)F)c(C(F)(F)F)c2)cc1OC | inconclusive: 25.1 µM [inhibitor, partial curve, poor fit] |
| CC[C@]12c3[nH]c4ccc(Cl)cc4c3CCN1C(=O)[C@@H](CC(=O)NC/C=C(\C)CCC=C(C)C)C[C@@H]2C(=O)N1CCN(C(=O)c2ccco2)CC1 | inconclusive: 89.1 µM [inhibitor, partial curve, poor fit] |
| CCS(=O)(=O)C1=NN2C(=N)/C(=C\c3ccc(OCCOc4cccc(OC)c4)c(OC)c3)C(=O)N=C2S1 | inactive |
| Cc1cc(CNC(=O)c2cccc3c2C(=O)c2ccc(-c4ccc(F)cc4OCc4ccccc4)cc2S3(=O)=O)c(C(F)(F)F)o1 | inconclusive: 31.6 µM [inhibitor, partial curve, poor fit] |
| O=C(N/N=C/c1ccc(O)cc1)c1cccc(N/N=C/c2ccc(O)cc2)c1 | inconclusive: 50.1 µM [inhibitor, partial curve, poor fit] |
| Clc1ccc[n+](CCCCC[n+]2cccc(Cl)c2)c1 | inconclusive: 89.1 µM [inhibitor, single point] |
| CCCC1=NN2C(=N)/C(=C\c3ccc(SCc4ccco4)o3)C(=O)N=C2S1 | inconclusive: 56.2 µM [inhibitor, partial curve] |
